Inconclusive results are not listed. Unless noted, calls follow the shape of the dose curve; as a rule, active = well fitted inhibition curve with a large enough effect; inconclusive = small, poorly fitted or top-dose-only effect; inactive = no such curve, though single readings can be large or run the other way. The source holds more than one record for some entries. They are shown here; other results are not. The source may hold further records. Results that share an entry are repeats in other runs, samples, wells, individuals or studies.
Columns and labels:
[1] = molecular target: Cytochrome P450 1A2 (Homo sapiens) (UniProt P05177); assay: p450-cyp1a2 (AID 410; calls by dose curve); conditions: recombinant CYP1A2, luciferin-ME demethylation, luminescence
Outline: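 Read-out is luminescence from luciferin produced by CYP1A2 demethylation of Luciferin-ME (100uM, at Km). Detection reagent stopped the 60 min NADPH-dependent reaction; signals were normalized to 57 uM furafylline.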

[2] = molecular target: Cytochrome P450 2C9 (Homo sapiens) (UniProt P11712); assay: qHTS Assay for Inhibitors and Substrates of Cytochrome P450 2C9 (AID 883); conditions: recombinant CYP2C9, luciferin-H luminescence, 60 min; also: nearly all actives have a fitted effect of over 60% in size
Outline: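 Inhibition of CYP2C9 is scored as loss of luminescence, with 57uM sulphaphenazole defining 100% inhibition. Substrate Luciferin-H is used at 100uM, equal to its KM; enzyme at 10nM in 25mM KPO4, 60 min at 37C with NADPH regeneration.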
Potency is read from the fitted curve at half-maximal effect.

UniProt P11712, sequence (P11712 whole entry, looked up): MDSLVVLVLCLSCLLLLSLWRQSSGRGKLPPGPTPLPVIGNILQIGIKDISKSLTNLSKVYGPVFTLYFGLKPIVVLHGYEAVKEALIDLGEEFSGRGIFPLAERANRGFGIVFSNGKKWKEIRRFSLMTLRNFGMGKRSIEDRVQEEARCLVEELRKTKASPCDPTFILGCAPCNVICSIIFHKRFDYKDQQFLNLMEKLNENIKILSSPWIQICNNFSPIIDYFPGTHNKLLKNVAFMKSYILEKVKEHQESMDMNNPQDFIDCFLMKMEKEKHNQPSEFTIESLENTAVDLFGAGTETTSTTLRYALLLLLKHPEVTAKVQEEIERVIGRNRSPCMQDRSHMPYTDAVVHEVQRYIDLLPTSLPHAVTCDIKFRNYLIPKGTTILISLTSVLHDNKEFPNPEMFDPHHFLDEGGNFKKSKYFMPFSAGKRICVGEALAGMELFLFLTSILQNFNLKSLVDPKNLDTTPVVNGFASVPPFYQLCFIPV
UniProt P05177, sequence (P05177 whole entry, looked up): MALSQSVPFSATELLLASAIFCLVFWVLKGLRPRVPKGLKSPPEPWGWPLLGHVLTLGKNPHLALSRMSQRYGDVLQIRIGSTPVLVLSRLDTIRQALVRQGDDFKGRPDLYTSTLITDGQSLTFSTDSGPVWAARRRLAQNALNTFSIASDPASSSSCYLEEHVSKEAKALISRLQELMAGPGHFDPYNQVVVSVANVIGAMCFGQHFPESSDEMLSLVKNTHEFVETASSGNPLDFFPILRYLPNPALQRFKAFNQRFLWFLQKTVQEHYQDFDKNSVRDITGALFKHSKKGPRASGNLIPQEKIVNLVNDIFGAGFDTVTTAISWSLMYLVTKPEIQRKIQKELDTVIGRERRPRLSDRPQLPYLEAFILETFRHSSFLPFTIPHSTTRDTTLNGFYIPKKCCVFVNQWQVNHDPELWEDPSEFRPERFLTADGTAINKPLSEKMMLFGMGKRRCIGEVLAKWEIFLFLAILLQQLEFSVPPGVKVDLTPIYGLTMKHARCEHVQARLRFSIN

Row | SMILES | Potency [1] | Potency [2]
1 | COc1ccc([C@@H]2CNC(=O)C2)cc1OC1CCCC1 | active: 10, 3.16, 3.98, 2.51 µM [separate samples] | 
2 | COc1ccc2c(c1OC)C(=O)OC2[C@H]1c2c(cc3c(c2OC)OCO3)CCN1C (some centres not stated) |  | active: 5.01, 2.51, 1.26, 1.58 µM [separate samples]

Reference: PubChem BioAssay (NCATS)
